Assay results published in the supplement of paper PMC7125110.
Variants at the floor of the assay are shown more often than the library holds them.

B1: glmS ribozyme (parent)
chain: AUAAAAGCGCCAGAACUACAGAAAUGUAGUUGACGAGGAGGAGGUUUAUCGAAUUUUCGGCGGAUGCCUCCAAA

Experiments:
Conditions in all cases: with glucosamine-6-phosphate
[1] = variants of: B1; assay: self-cleavage kobs at 40 uM GlcN6P; higher = faster cleavage; RNA array
Summary of the method: (§1)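 The measurements used barcoded ribozyme variants on sequenced MiSeq chips, transcribed in situ by E. coli RNA polymerase and tracked at 37 °C with a hybridised Cy3 probe. Glucosamine-6-phosphate, 40 μM to 10 mM in HEPES/KCl/Mg(OAc)2 buffer, was flowed in while tiles were imaged over ~14 h. Baseline-normalised signals, also normalised to non-cleaving reference variants, gave per-tile medians that were fit to one- or two-exponential decays for kobs. kcat and KM resulted from weighted Michaelis–Menten fits across concentrations.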

[2] = variants of: B1; assay: self-cleavage kobs at 10000 uM GlcN6P; higher = faster cleavage; RNA array
Summary of the method: as §1

[3] = variants of: B1; assay: self-cleavage kobs at 2500 uM GlcN6P; higher = faster cleavage; RNA array
Summary of the method: as §1

[4] = variants of: B1; assay: kcat; higher = faster cleavage; RNA array
Summary of the method: as §1

[5] = variants of: B1; assay: self-cleavage kobs at 160 uM GlcN6P; higher = faster cleavage; RNA array
Summary of the method: as §1

[6] = variants of: B1; assay: self-cleavage kobs at 640 uM GlcN6P; higher = faster cleavage; RNA array
Summary of the method: as §1

| Variant | self-cleavage kobs at 40 uM GlcN6P [1] [s⁻¹] | self-cleavage kobs at 10000 uM GlcN6P [2] [s⁻¹] | self-cleavage kobs at 2500 uM GlcN6P [3] [s⁻¹] | kcat [4] [s⁻¹] | self-cleavage kobs at 160 uM GlcN6P [5] [s⁻¹] | self-cleavage kobs at 640 uM GlcN6P [6] [s⁻¹] |
| --- | --- | --- | --- | --- | --- | --- |
| G7C U55G | < 1e-05 | < 1e-05 | – | – | – | – |
| C8A A42U G62U | < 1e-05 | – | < 1e-05 | – | – | – |
| G7A A15G C58G G66U | < 1e-05 | < 1e-05 | – | – | – | – |
| G9A C58U C61G | < 1e-05 | – | – | – | – | – |
| C8U G37U G41U C61U | < 1e-05 | < 1e-05 | – | – | – | – |
| G35A G51U | < 1e-05 | – | – | < 1e-05 | < 1e-05 | – |
| G7C U57C | < 1e-05 | < 1e-05 | < 1e-05 | – | < 1e-05 | – |
| A6C G29U | < 1e-05 | – | – | – | < 1e-05 | – |
| G7A A14C | < 1e-05 | – | – | – | – | – |
| G7A A48U | < 1e-05 | < 1e-05 | < 1e-05 | – | < 1e-05 | < 1e-05 |
| G7A A12G C61G | < 1e-05 | – | – | – | – | < 1e-05 |
| U49A C61G | – | – | – | < 1e-05 | – | – |
| G9A A15G U30C | < 1e-05 | – | – | – | – | – |
| C16G A64U | < 1e-05 | – | – | < 1e-05 | < 1e-05 | < 1e-05 |
| C8G G44C U46A U56A U57A G63A | < 1e-05 | – | – | – | – | – |
| A6U G60U C70U | < 1e-05 | < 1e-05 | – | – | – | – |
| C8A U30C | < 1e-05 | < 1e-05 | < 1e-05 | – | – | – |
| G60C | < 1e-05 | – | < 1e-05 | < 1e-05 | < 1e-05 | – |
| A6U G9U | < 1e-05 | – | < 1e-05 | – | < 1e-05 | < 1e-05 |
| C8G A15G A64G | < 1e-05 | – | – | – | – | – |
| G7U C8A G37A | < 1e-05 | – | – | – | – | – |
| C8G G60C C68A | < 1e-05 | < 1e-05 | – | – | – | – |
| C8U G41U | < 1e-05 | – | – | – | – | – |
| G7C G63C C68G U69A | < 1e-05 | < 1e-05 | – | – | – | – |
| C8U U31C C67G | < 1e-05 | < 1e-05 | – | – | – | < 1e-05 |
| A6G C16U G29C | < 1e-05 | – | – | – | – | – |
| A6C G32U | < 1e-05 | – | < 1e-05 | – | – | < 1e-05 |
| G60A C71A | < 1e-05 | – | – | < 1e-05 | – | – |

| Variant | self-cleavage kobs at 40 uM GlcN6P [1] [s⁻¹] | self-cleavage kobs at 10000 uM GlcN6P [2] [s⁻¹] | self-cleavage kobs at 2500 uM GlcN6P [3] [s⁻¹] | kcat [4] [s⁻¹] | self-cleavage kobs at 160 uM GlcN6P [5] [s⁻¹] | self-cleavage kobs at 640 uM GlcN6P [6] [s⁻¹] |
| --- | --- | --- | --- | --- | --- | --- |
| A6G A14C A53G C61U | < 1e-05 | < 1e-05 | – | – | – | – |
| G7U A12U A52G U55G | < 1e-05 | – | – | – | – | – |
| G9C U30G G32U G44C C58U | < 1e-05 | – | – | – | – | – |
| G7U A42G U49G C70G | < 1e-05 | – | – | – | – | – |
| C8G A14G A42U A52C A64C | < 1e-05 | – | < 1e-05 | – | – | < 1e-05 |
| U45G G51A | < 1e-05 | < 1e-05 | < 1e-05 | < 1e-05 | – | < 1e-05 |
| G7A A53C | < 1e-05 | – | < 1e-05 | – | < 1e-05 | < 1e-05 |
| A6G U54G U57C | < 1e-05 | < 1e-05 | – | – | – | – |
| A6G A33G A48G A64U | < 1e-05 | – | – | – | – | – |
| G7A A42C | < 1e-05 | – | – | – | < 1e-05 | < 1e-05 |
| C34G G38C | – | – | – | < 1e-05 | – | – |
| A6U G9U U45A C71A | < 1e-05 | < 1e-05 | – | – | – | – |
| G38A C67U | – | < 1e-05 | – | < 1e-05 | – | – |
| G7U C68U | – | – | – | < 1e-05 | – | – |
| C8U A36G | < 1e-05 | < 1e-05 | < 1e-05 | – | < 1e-05 | < 1e-05 |
| C11G C68U | < 1e-05 | – | – | < 1e-05 | – | – |
| G38U U57C | < 1e-05 | < 1e-05 | – | < 1e-05 | – | – |
| G9C U30A | < 1e-05 | – | – | – | – | < 1e-05 |
| G9C U30G | < 1e-05 | – | – | – | < 1e-05 | < 1e-05 |
| G7U C10A A15U | < 1e-05 | – | < 1e-05 | – | – | < 1e-05 |
| A6G G9A C10A | < 1e-05 | < 1e-05 | – | – | < 1e-05 | – |
| C10A A64G | < 1e-05 | – | – | < 1e-05 | – | – |
| G38A C68G | – | – | – | < 1e-05 | – | – |
| C8U G9A A15C A36G U49C U57G | < 1e-05 | – | – | – | – | – |
| G9A U46A C61U G62U A64G | < 1e-05 | < 1e-05 | – | – | – | – |
| G7U A15U | < 1e-05 | < 1e-05 | < 1e-05 | – | < 1e-05 | < 1e-05 |
| C8A A52C | < 1e-05 | – | – | – | – | – |
